From PubChem BioAssay AID1240 (Sanford-Burnham Center for Chemical Genomics, 2008)
The whole screen tested about 50,000 compounds, of which about 800 (1.6%) showed an effect of 50% or more. This is one part of the list.

molecular target: Bcl-2-like protein 10 (Homo sapiens) (UniProt Q9HD36); assay: Phenotype converters, Bcl-B/TR3 peptide binding displacement, primary biochemical FP (AID 1240); conditions: GST-Bcl-B / FITC-TR3 peptide fluorescence polarization; stronger effect = higher value; compound at 3.75 mg/L;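 note: 0% = Bcl-B with tracer peptide and DMSO and 100% = tracer peptide lacking Bcl-B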
Sequence of UniProt Q9HD36 (Q9HD36 whole entry, looked up): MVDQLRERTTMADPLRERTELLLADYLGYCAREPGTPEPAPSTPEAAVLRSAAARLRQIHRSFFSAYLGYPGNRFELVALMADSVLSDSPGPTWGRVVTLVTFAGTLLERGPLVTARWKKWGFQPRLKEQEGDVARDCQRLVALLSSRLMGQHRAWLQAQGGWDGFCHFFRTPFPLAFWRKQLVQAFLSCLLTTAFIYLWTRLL

Structure (SMILES)	displacement
COc1ccc(CN(C)C(=O)c2cccc(C(=O)N(C)Cc3ccc(OC)cc3)c2)cc1	10.7%
Cc1ccc(C(=O)N/C(=C/c2ccc(-c3ccc(Cl)cc3)o2)C(=O)NC(C)C)cc1	14.2%
CC(=O)C(C(C)=O)C1=CC(=O)C(=O)c2ccccc21	14.3%
CCOC(=O)C1=C(N)Oc2cc(O)ccc2C1c1cccc([N+](=O)[O-])c1 (centres undefined)	-8.6%
COc1ccc(Br)cc1C(=O)Nc1ccc2nn(-c3ccccc3)nc2c1	48.4%
CN1CCN(Cc2c(O)ccc3c(=O)c(-c4ccc(Cl)cc4Cl)coc23)CC1	-8.4%
COc1cc(/C=C2\SC(=S)N(C)C2=O)ccc1OC(=O)c1ccc(Cl)cc1	25.4%
C/C(=N\NC(=O)c1cccc([N+](=O)[O-])c1)c1ccccn1	5.7%
COc1ccc(-n2c(SCC(=O)N3CCOCC3)nc(O)c(Cc3ccccc3)c2=O)cc1	1.2%
O=C(CCCSc1nc2sc3c(c2c(=O)[nH]1)CCCC3)NCCO	-7.2%
O=C(CN1C(=O)c2ccccc2C1=O)Nc1cccc(-c2nc3ccccc3c(=O)o2)c1	-11.6%
COc1ccc(/C=C/C(=O)NC(=S)Nc2ccc(I)cc2)cc1	14.3%
CC(C)c1nnc(NC(=O)Nc2ccc(Cl)c(Cl)c2)s1	98.2%
C=CCOc1ccc(/C=C2\C(=O)NC(=O)N(c3ccc(C)cc3)C2=O)cc1	-10.4%
CCOc1cc(OCC)cc(C(=O)Nc2cc(C(=O)OC)cc(C(=O)OC)c2)c1	6.7%
COc1ccc(C2=NN(C(=O)CCC(=O)O)C(c3ccc(OC)c(OC)c3)C2)cc1 (centres undefined)	16.9%
CC(C)COc1cccc(-c2cc(C(=O)O)c3ccccc3n2)c1	-0.4%
CCOC(=O)c1c(NC(=O)c2ccc([N+](=O)[O-])cc2)sc2c1CCC(C)C2 (centres undefined)	-4.3%
O=C(NCc1ccc2c(c1)OCO2)c1ccco1	13%
O=C(N/N=C/c1nc2ccccc2n1Cc1ccccc1)c1ccccc1	-2.6%
COc1cccc(N(CC(=O)Nc2cc(C)ccc2C)S(=O)(=O)c2ccccc2)c1	-5.8%
O=c1cc(NC2CCCCC2)c2ccccc2n1-c1ccccc1	-2.4%
CCCC(=O)NS(=O)(=O)c1ccc(NC(=O)c2cccc(Br)c2)cc1	5.9%

Structure (SMILES)	displacement
O=C1Nc2ccccc2C1=Cc1nc2ccccc2c(=O)n1-c1ccccc1[N+](=O)[O-]	-5.1%
S=c1nc2c(n[nH]1)c1ccccc1n2Cc1ccccc1	-6%
CC1=C(C(=O)Nc2ccccc2)C(c2ccc(Cl)cc2)N2C(=O)CSC2=N1 (centres undefined)	-14.3%
COC(=O)C1=C(C)N(c2ccc(C)c(C)c2)/C(=C/c2ccc(OC)cc2)C1=O	14.1%
NC(=O)c1ccc(NC(=O)C2CCCC2)cc1	-4%
Cc1ccc(/C=C/C(=O)Nc2ncc(Cc3ccc(F)cc3)s2)o1	7%
CCC(=O)Nc1ccc(NC(=O)/C=C/c2ccccc2)cc1	-3.3%
CN(C)c1ccc(/C=C2\SC(=S)N(NC(=O)c3ccccc3Cl)C2=O)cc1	-1.7%
CCOC(=O)C1=C(O)/C(=C/c2cccc(Oc3ccccc3)c2)SC1=Nc1ccccc1	-8.3%
O=C(NNC1=C(C(=O)C(F)(F)F)CCC1)c1ccc(-c2ccccc2)cc1	-14.2%
CCOC(=O)c1ccc(NC(=O)CN(c2ccc(Cl)cc2C)S(=O)(=O)c2ccccc2)cc1	-7.4%
CCOC(=O)c1c(NC(=O)c2cccnc2)sc2c1CCCC2	11.4%
COc1ccc(-n2c(SCC(=O)c3ccccc3)nc3sc4c(c3c2=O)CCC4)cc1	-14.1%
COc1cc(/C=C2/SC(=S)N(CC(=O)Nc3ccc(F)c(Cl)c3)C2=O)cc(OC)c1OC	-4.7%
CC(C)(C)c1ccc(/C=c2\sc3nnc(-c4ccccc4)n3c2=O)cc1	-4.5%
O=C(O)C(Oc1ccc2c(-c3ccccc3)cc(=O)oc2c1)c1ccccc1 (centres undefined)	-9%
CC(C)Nc1nc(NC(N)=S)nc(NC(C)C)n1	-4%
CCN(CC)CCCCCCOc1ccc(C)c(C)c1	3.7%
O=C(c1ccc(Cl)cc1Cl)N1CCN(c2nc3ccc([N+](=O)[O-])cc3s2)CC1	100%
CCOc1cccc(-c2nnc(NC(=O)c3ccccc3F)s2)c1	13.5%
OCCNCCCOc1ccc(F)cc1	3.2%
NNC(=O)CSc1ccc2ccccc2n1	4.9%
N/C(=C/C(=O)c1ccc(Cl)cc1)C(F)(F)F	-2.6%

Structure (SMILES)	displacement
COc1ccc(Cc2nc3ccccc3c(=O)n2/N=C/c2c[nH]c3ccccc23)cc1OC	-4%
CC(=O)C1(Nc2ccccc2)CC(C)=NN1C(=O)c1ccccc1 (centres undefined)	7%
O=C(Nc1nc(-c2ccccc2)cs1)c1cc2ccccc2oc1=O	1.7%
COCCOC(=O)c1c(C)oc2ccc(O)cc12	10.8%
O=C(Nc1ccccc1[N+](=O)[O-])c1ccccc1Cl	8.4%
Cc1cc(Cl)ccc1OCCCC(=O)Nc1cc(Cl)ccc1Cl	0.3%
NC(=O)c1cccc(N=Cc2ccc(C=Nc3cccc(C(N)=O)c3)cc2)c1	-7.2%
COc1ccc(OC)c(/C=C2/SC(=S)N(c3ccccc3OC)C2=O)c1	-0.9%
COC(=O)c1ccc(NC(=O)CC2CCC2)cc1	3.3%
NS(=O)(=O)c1ccc(N=Cc2ccc(Cl)cc2)cc1	3.2%
O=C(Nc1ccc([N+](=O)[O-])cn1)C1CC1	12.6%
Cc1ccc(S(N)(=O)=O)cc1NC(=O)c1ccc(C(C)(C)C)cc1	-10.3%
CCOC(=O)Nc1cc([N+](=O)[O-])ccc1Cl	6.6%
COC(=O)c1sccc1NC(=O)c1cc(-c2ccc(OC)cc2OC)nc2ccccc12	16.4%
Brc1ccc(-c2nc(NCCCN3CCOCC3)c3ccccc3n2)cc1	10.2%
COC(=O)CSc1nnc2n(-c3ccc(OC)cc3)c(=O)c3c4c(sc3n12)COC(C)(C)C4	3.8%
CCc1c(C)nc2ccc(C)cc2c1SCC(=O)O	9.8%
O=C(NCc1ccccc1)c1ccccc1Cl	13%
O=C(c1ccco1)N1CCN(C/C=C/c2ccccc2)CC1	-7.3%
O=C(N1CCOCC1)n1nnc2ccccc21	13.2%
O=C(CN(c1ccc(Br)cc1)S(=O)(=O)c1ccccc1)Nc1ccccc1F	-7.8%
O=C1ON=C(c2ccc(Cl)cc2)/C1=C/c1ccc(O)cc1	4.4%
COc1ccccc1N(CC(=O)N(C)Cc1ccccc1)S(=O)(=O)c1ccccc1	-0.1%
